Several values for one entry are separate records, joined by “and”; a condition that tells them apart may be missing. Equal values may be shown once. In all, about 150,000 compounds went through this assay and about 540 (0.36%) showed an effect of 50% or more. The list shows a part of the results.
Tested on: Plasmodium falciparum
Assay: Primary screen in NF54 nanoGlo assay, in single point, at 2uM, 72h; a lower Z score goes with more inhibition
Format: functional, Erythrocyte
Details: timepoint 72 hour

Row | SMILES | % Inhibition | Z score | % Inhibition (2 µM)
1 | Cc1cccc(N2CC[C@@]3(CCCN(C4CCCCC4)C3=O)C2)n1 | -15% | 2.86 | 
2 | O=C1C2C(c3ccccc3)NC3(C(=O)Nc4ccccc43)C2C(=O)N1c1ccc(Cl)cc1 (centres undefined) | 33% | -3.75 | 
3 | Cc1ccc(-n2nc(-c3noc(C(=O)NCCCN4CCC[C@H](C)C4)n3)c(=O)n(C)c2=O)cc1 | 9% | -1.58 | 
4 | CC(=O)N1CCC([C@@H]2CN(C(=O)c3cccs3)C[C@H]2CO)CC1 | 0% | -0.02 | 
5 | COc1ccc(-c2noc(-c3cn(Cc4ccc(NC(=O)c5ccccc5C)cc4)cn3)n2)cc1 | -6% | 0.81 | 
6 | NC(=O)C1CCCC1NC(=O)CCCn1ccc2cc(Cl)ccc21 (centres undefined) | -7% | 0.97 | 
7 | CC(C)(Cc1ccccc1)NS(C)(=O)=O | 1% | -0.1 | 
8 | CC1=NO[C@](C)(C(=O)NCc2cccnc2-n2cnc3ccccc32)C1 | -7% | 0.69 | 
9 | O=C(CS(=O)(=O)c1ccc2c(c1)S(=O)(=O)N=CN2)Nc1ccccc1C(F)(F)F | 6% | -0.84 | 
10 | OC(COCC1CC2CCC1C2)Cn1cnc2ccccc21 (centres undefined) |  |  | -7% and 3%
11 | COc1ccc(C2(CNC(=O)c3ccc4c(c3)OCO4)CCOCC2)cc1OC | -8% | 0.96 | 
12 | CCNc1ccc(Br)cc1NC(=O)[C@@H]1CNC(=O)C1 | -11% | 1.29 | 
13 | Cc1nc(-c2cccs2)sc1C(=O)Nc1nnc(C(F)(F)F)[nH]1 | -2% | 0.3 | 
14 | Cn1c(CCNC(=O)NC2CC3CCC2O3)nc2cc(Cl)ccc21 (centres undefined) | -16% | 1.31 | 
15 | O=C(c1cccc2ccccc12)N1CC(N2C(=O)CNC2=O)C1 | -4% | 0.84 | 
16 | Cc1cc(OC(F)F)ccc1NC(=O)c1cc(-c2cnn(C)c2)nc2onc(C)c12 | 31% | -3.56 | 
17 | COc1cc(OC)c(NC(=O)NCCn2c(-c3ccc(C)cc3)nc3ccccc32)cc1Cl | -10% | 1.33 | 
18 | CC(CC1CCOC1)Nc1ccncc1C(N)=O (centres undefined) | -12% | 1.26 | 
19 | CC1CCN(c2nc3c(c(Oc4ccc(F)cc4)n2)CN(C(=O)c2ccccc2Cl)CC3)CC1 | -12% | 1.96 | 
20 | Cc1ccc(-c2ncc(CN(C)CCc3nccs3)s2)o1 | 1% | -0.11 | 
21 | Cn1nc(CC2CCN(c3cc(N)ncn3)CC2)n(-c2ccccc2)c1=O | -2% | 0.27 | 
22 | Cc1cc(O)nc(CN2CC(C)CC(C)C2)n1 (centres undefined) | 34% | -4.43 | 

Row | SMILES | % Inhibition | Z score | % Inhibition (2 µM)
23 | CC1CN(C(=O)c2ccc(Cn3cncn3)cc2)C(C)CO1 (centres undefined) | 10% | -1.56 | 
24 | Cc1ncccc1C(=O)Nc1cnccn1 | -7% | 0.92 | 
25 | CCCCNC(=O)C1=CN(CCc2ccccc2)S(=O)(=O)N=C1C | -10% | 1.29 | 
26 | O=C(O)[C@H](Cc1c[nH]c2ccccc12)n1cc(-c2nccs2)nn1 | 8% | -1.1 | 
27 | NC1CCC(C(=O)NCC2(c3ccccc3Cl)CCOCC2)C1 (centres undefined) | 8% | -1.21 | 
28 | CC(C)[C@H](Oc1ccccc1Br)C(=O)Nc1nnc(C2CC2)s1 | -6% | 1.18 | 
29 | Cc1ccc(CNC(=O)C(=O)Nc2cnc3ccccc3c2)c(C)c1 | 6% | -0.81 | 
30 | O=C1N(CC2CC2)CCC[C@@]1(O)CN1CCC(Cc2ccccc2)CC1 | -16% | 1.41 | 
31 | COc1ccc(C)cc1S(=O)(=O)N1CCc2cc3ccccc3nc21 | -11% | 1.26 | 
32 | Cc1cc(CNc2nc(C)ccc2C(N)=O)ccn1 | -5% | 0.99 | 
33 | COc1ccc(CC(=O)N[C@H]2CCOC2)cc1OC | -1% | 0.14 | 
34 | Cc1csc([C@H](C)N(C)Cc2nc(-c3ccsc3)oc2C)n1 | 8% | -1.55 | 
35 | NC(=O)Cc1nc(C[C@H]2CCc3ccccc32)n(CC(F)(F)F)n1 | 5% | -0.65 | 
36 | O=C(Nc1ccncc1F)N[C@H]1CCCOCC1 | -4% | 0.82 | 
37 | CC(C)CN1CCCn2nc(CNc3noc(-c4ccccc4)n3)cc2C1 | -4% | 0.4 | 
38 | CNC(=O)NC(=O)CNC(C)C(C)c1ccccc1C(F)(F)F (centres undefined) | -10% | 1.35 | 
39 | Cc1nc(C(=O)N[C@H]2CCS(=O)(=O)C2)c(-c2ccccc2)s1 | -1% | 0.05 | 
40 | CCN(C)[C@H]1CCN(C(=O)c2scc(C)c2Cl)C1 | -2% | 0.47 | 
41 | CC[C@H](OC)C(=O)N(C)Cc1cscn1 | -10% | 1.87 | 
42 | O=C(NS(=O)(=O)Cc1ccccc1)c1cccc(-c2ncn[nH]2)c1 | -11% | 1.43 | 
43 | CN(C)c1ccc(C2OCC3(CCC4(COC(c5ccc(N(C)C)cc5)OC4)C3=O)CO2)cc1 (centres undefined) | 2% | -0.28 | 
44 | Cc1cccc(N(C)S(=O)(=O)c2c(C)sc(C)c2-c2ccno2)c1 | -14% | 2.36 | 

Row | SMILES | % Inhibition | Z score | % Inhibition (2 µM)
45 | C[C@H](O)c1ncc(CNc2ccc(Br)cc2CO)s1 | -10% | 1.74 | 
46 | Cc1cccc(CCNC(=O)CC[C@H](C)N2CCOCC2)n1 | -2% | 0.29 | 
47 | CN1CCCC(COC(=O)Cc2ccc(OCC#N)cc2)C1c1ccc(C(F)(F)F)cc1 (centres undefined) | -8% | 1.2 | 
48 | CC(C)NC(=O)c1nnc2n1CCCC2 | -16% | 3.12 | 
49 | Cc1ccnc(NC(=O)c2ccc(S(=O)(=O)c3ccccc3)cc2)c1 | -4% | 0.46 | 
50 | O=C(c1ccc(-c2cccc(Cl)c2Cl)o1)N1CCC1 | -14% | 1.69 | 
51 | CCn1nccc1S(=O)(=O)N(C)c1ccc(Br)cc1C | -3% | 0.27 | 
52 | COc1ncnc(OC)c1C(=O)NC[C@@H](CO)c1cccnc1 | 4% | -0.56 | 
53 | Cc1noc(C)c1CNC(=O)[C@@H]1CCCCN1CC(C)C | -13% | 1.72 | 
54 | O[C@H]1CN(Cc2ccc(C#Cc3cncnc3)cc2)CC[C@@H]1N1CCOCC1 | -5% | 0.67 | 
55 | O=C(O)c1ccc(CN2CCC[C@H]2Cn2ccnn2)c(Br)c1 | 4% | -0.82 | 
56 | CC(C)c1nnc([C@H](C)NC(=O)c2cn[nH]c2)o1 | -15% | 1.9 | 
57 | CCn1c(C)nc2cc(NS(=O)(=O)c3ccccc3)cc(C(=O)NCc3cccc(F)c3)c21 | -5% | 0.71 | 
58 | COC1CCN(C[C@]2(O)CCCN(CCC3CCCCC3)C2=O)CC1 | 5% | -0.66 | 
59 | CC[C@@H](CC#N)NC(=O)c1ccc(O)cc1C | -10% | 1.42 | 
60 | N#C[C@@H](C(=O)COc1cc(F)ccc1F)c1nc2ccccc2s1 | -6% | 1.11 | 
61 | Cc1[nH]ccc1C(=O)N1CCCC2CCCC21 (centres undefined) | 30% | -3.45 | 
62 | CC(C)n1c(=O)n(CC(=O)N[C@@H](C)CCc2ccccc2)c2cc(S(=O)(=O)N3CCCC3)ccc21 | -9% | 1.12 | 
63 | CC[C@@H](C(=O)OC)N1CCc2onc(-c3cccc4ccccc34)c2C1 | -11% | 1.3 | 
64 | Cc1csc(CNC(=O)NC2CCC(O)CC2)n1 (centres undefined) | -13% | 1.82 | 
65 | Cc1ccc([C@H]2CN(C(=O)CCc3ccc4c(c3)OCO4)C[C@@H]2N)o1 | -19% | 2.65 | 
66 | Brc1cc2c(cc1Cn1cc(-c3cnn(Cc4cc5c(cc4Br)OCO5)c3)cn1)OCO2 | 1% | -0.21 | 

Row | SMILES | % Inhibition | Z score | % Inhibition (2 µM)
67 | CC(C)(O)CN(Cc1cc(Cl)c2c(c1)OCCO2)C1CCOCC1 | -5% | 0.82 | 
68 | CC1(C(=O)O)CCN(C2CCc3ccc(F)cc32)C1 (centres undefined) | -42% | 4.98 | 
69 | CCn1ccnc1CN(Cc1ccccc1OC)C1CCCC1 | 5% | -0.91 | 
70 | Cc1c(CNC2CCOC(C)C2)n(C)c2ccccc12 (centres undefined) | -11% | 1.54 | 
71 | CC1(C)C[C@@H](NC(=O)c2cc3[nH]cnc3cc2F)CCO1 | 31% | -4.43 | 
72 | Cc1cnc(C2CN(C(=O)C3CCCC3)C2)n1CC1CC1 | -12% | 1.6 | 
73 | O=C1CN(C(=O)c2ccc(-c3ccccc3F)o2)c2ccccc2N1 | 31% | -4.11 | 
74 | Fc1ccccc1-c1cnnc(N2CC[C@H](c3cccc(Cl)c3)C2)n1 | -5% | 0.66 | 
75 | CCc1ncsc1C(=O)N(C)[C@@H]1CCC[C@H]1O | 31% | -4.43 | 
76 | CC[C@H]1C[C@@H](NC(=O)c2ccccc2)C[C@@H](c2ccc3nonc3c2)O1 | -10% | 1.77 | 
77 | CCNC(=O)NCCc1ncc(C)n1C1CC1 | -5% | 0.87 | 
78 | O=C(C1CC(=O)N(C2CCS(=O)(=O)C2)C1)N(Cc1ccccc1)Cc1ccccc1 (centres undefined) | 1% | -0.06 | 
79 | CCNc1nc(C)c(C(=O)NCc2ccc3c(c2)CC(C)(C)O3)s1 | -17% | 2.82 | 
80 | Cc1cc(C)c(NC(=O)[C@@H]2CCCN2S(=O)(=O)c2cc3c(cc2C)NC(=O)CO3)c(C)c1 | -10% | 1.98 | 
81 | CCCn1cnnc1CN(C)[C@@H](C)C(=O)NC1CCCC1 | -3% | 0.51 | 
82 | C[C@H](N)COc1ccc(C(C)(C)C)cc1 | 6% | -1.21 | 
83 | Cc1cc(C)c(S(=O)(=O)N2CCCC(C(=O)NCC3CCCO3)C2)c(C)c1 (centres undefined) | -41% | 4.75 | 
84 | CC1(C)C[C@@H](O)CCN(S(=O)(=O)CC2CC2)C1 | -6% | 0.65 | 
85 | COCCN1C(=O)[C@H]2[C@H]([C@H](O)c3ccc(Cl)cc3)N[C@@]3(C(=O)Nc4ccccc43)[C@H]2C1=O | 11% | -1.8 | 
